Source: patent US20120142731A1, “METHODS OF INHIBITING VIRAL INFECTION” (Functional Genetics, Inc., priority 2007, published 2012)

Tests used:
influenza virus = type: cell-based
HIV = type: cell-based

CC(C)(C)NCc1cc(Nc2ccnc3cc(Cl)ccc23)cc(-c2ccc(Cl)cc2)c1O [Compound R24, 4′-chloro-5-[(7-chloro-4-quinolinyl)amino]-3-(1,1-dimethylethylamino)methyl [1,1′-biphenyl]-2-ol]
inhibiting influenza viral activity (influenza virus): remarkably effective | inhibition of HIV (luciferase detected) (HIV): complete inhibition
